# Data: the supplement of paper PMC8728848
# This is one part of the list.
# How the values were obtained:
# Assay in all cases: glycan array binding signal (z-score within array); higher = stronger binding
# Settings in all cases: glycan notation: IUPAC condensed, linker removed
# [1] = molecular target: Neu5Ac(a2-3)Gal(b1-3)[Fuc(a1-4)]GlcNAc(b1-3)Gal(b1-4)[Fuc(a1-3)]GlcNAc
# In short: (§1)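 Arrays were curated from the Consortium for Functional Glycomics database, 3228 in total, and kept only where the protein sequence was available. Binding is expressed as a within-array Z-score. This score was averaged across arrays of the same protein sequence at different concentrations or buffers and across linkers, and negative values can be read as non-binding.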
# [2] = molecular target: Neu5Ac(a2-3)Gal(b1-3)[Neu5Ac(a2-3)Gal(b1-4)]GlcNAc
# In short: as §1
# [3] = molecular target: Neu5Ac(a2-3)Gal(b1-3)[Neu5Ac(a2-6)]GalNAc
# In short: as §1
# Neu5Ac(a2-3)Gal(b1-4)Glc = molecular target: Neu5Ac(a2-3)Gal(b1-4)Glc
# In short: as §1
# [4] = molecular target: Neu5Ac(a2-3)Gal(b1-4)GlcNAc
# In short: as §1
# [5] = molecular target: Neu5Ac(a2-3)Gal(b1-4)GlcNAc(b1-2)Man(a1-3)[GlcNAc(b1-2)Man(b1-4)GlcNAc(b1-2)Man(a1-6)]Man(b1-4)GlcNAc(b1-4)GlcNAc
# In short: as §1
# [6] = molecular target: Neu5Ac(a2-3)Gal(b1-4)GlcNAc(b1-2)Man(a1-3)[Neu5Ac(a2-6)Gal(b1-4)GlcNAc(b1-2)Man(a1-6)]Man(b1-4)GlcNAc(b1-4)GlcNAc
# In short: as §1
# [7] = molecular target: Neu5Ac(a2-3)Gal(b1-4)GlcNAc(b1-3)Gal(b1-3)GlcNAc
# In short: as §1
# [8] = molecular target: Neu5Ac(a2-3)Gal(b1-4)GlcNAc(b1-3)Gal(b1-4)GlcNAc
# In short: as §1
# [9] = molecular target: Neu5Ac(a2-3)Gal(b1-4)GlcNAc(b1-3)Gal(b1-4)GlcNAc(b1-3)Gal(b1-4)GlcNAc
# In short: as §1
# [10] = molecular target: Neu5Ac(a2-3)Gal(b1-4)GlcNAc(b1-3)Gal(b1-4)[Fuc(a1-3)]GlcNAc
# In short: as §1
# [11] = molecular target: Neu5Ac(a2-3)Gal(b1-4)GlcNAc(b1-3)GalNAc
# In short: as §1
# [12] = molecular target: Neu5Ac(a2-3)Gal(b1-4)GlcNAc(b1-6)[Gal(b1-3)]GalNAc
# In short: as §1
# [13] = molecular target: Neu5Ac(a2-3)Gal(b1-4)GlcNAc(b1-6)[Neu5Ac(a2-3)Gal(b1-3)]GalNAc
# In short: as §1
# [14] = molecular target: Neu5Ac(a2-3)Gal(b1-4)GlcNAc6S
# In short: as §1
# [15] = molecular target: Neu5Ac(a2-3)Gal(b1-4)[Fuc(a1-3)]GlcNAc
# In short: as §1
# [16] = molecular target: Neu5Ac(a2-3)Gal(b1-4)[Fuc(a1-3)]GlcNAc(b1-3)Gal
# In short: as §1
# [17] = molecular target: Neu5Ac(a2-3)Gal(b1-4)[Fuc(a1-3)]GlcNAc(b1-3)Gal(b1-4)GlcNAc
# In short: as §1
# [18] = molecular target: Neu5Ac(a2-3)Gal(b1-4)[Fuc(a1-3)]GlcNAc(b1-3)Gal(b1-4)[Fuc(a1-3)]GlcNAc(b1-3)Gal(b1-4)[Fuc(a1-3)]GlcNAc
# In short: as §1
# [19] = molecular target: Neu5Ac(a2-3)Gal(b1-4)[Fuc(a1-3)]GlcNAc(b1-6)[Gal(b1-3)]GalNAc
# In short: as §1
# [20] = molecular target: Neu5Ac(a2-3)Gal(b1-4)[Fuc(a1-3)]GlcNAc(b1-6)[Neu5Ac(a2-3)Gal(b1-3)]GalNAc
# In short: as §1
# [21] = molecular target: Neu5Ac(a2-3)Gal(b1-4)[Fuc(a1-3)]GlcNAc6S
# In short: as §1
# [22] = molecular target: Neu5Ac(a2-3)Gal6S(b1-4)GlcNAc
# In short: as §1
# [23] = molecular target: Neu5Ac(a2-3)Gal6S(b1-4)[Fuc(a1-3)]GlcNAc
# In short: as §1
# Neu5Ac(a2-3)GalNAc = molecular target: Neu5Ac(a2-3)GalNAc
# In short: as §1
# [24] = molecular target: Neu5Ac(a2-3)GalNAc(b1-4)GlcNAc
# In short: as §1
# [25] = molecular target: Neu5Ac(a2-3)[GalNAc(b1-4)]Gal(b1-4)Glc
# In short: as §1
# [26] = molecular target: Neu5Ac(a2-3)[GalNAc(b1-4)]Gal(b1-4)GlcNAc
# In short: as §1
# [27] = molecular target: Neu5Ac(a2-3)[Neu5Ac(a2-6)]GalNAc
# In short: as §1
# Neu5Ac(a2-6)Gal = molecular target: Neu5Ac(a2-6)Gal
# In short: as §1
# Neu5Ac(a2-6)Gal(b1-4)Glc = molecular target: Neu5Ac(a2-6)Gal(b1-4)Glc
# In short: as §1
# [28] = molecular target: Neu5Ac(a2-6)Gal(b1-4)GlcNAc
# In short: as §1
# [29] = molecular target: Neu5Ac(a2-6)Gal(b1-4)GlcNAc(b1-2)Man(a1-3)Man(b1-4)GlcNAc(b1-4)GlcNAc
# In short: as §1
# [30] = molecular target: Neu5Ac(a2-6)Gal(b1-4)GlcNAc(b1-2)Man(a1-3)[Gal(b1-4)GlcNAc(b1-2)Man(a1-6)]Man(b1-4)GlcNAc(b1-4)GlcNAc
# In short: as §1
# [31] = molecular target: Neu5Ac(a2-6)Gal(b1-4)GlcNAc(b1-2)Man(a1-3)[GlcNAc(b1-2)Man(a1-6)]Man(b1-4)GlcNAc(b1-4)GlcNAc
# In short: as §1
# [32] = molecular target: Neu5Ac(a2-6)Gal(b1-4)GlcNAc(b1-2)Man(a1-3)[GlcNAc(b1-2)Man(b1-4)GlcNAc(b1-2)Man(a1-6)]Man(b1-4)GlcNAc(b1-4)GlcNAc
# In short: as §1
binder,measurement,setting,value
"Flo11 (Saccharomyces cerevisiae), Q1H8S8 (protein) MGSSHHHHHHSSGLVPRGSHMFPTALVPRGSSEGTSCNSIVNGCPNLDFNWHMDQQNIMQYTLDVTSVSWVQDNTYQITIHVKGKENIDLKYLWSLKIIGVTGPKGTVQLYGYNENTYLIDNPTDFTATFEVYATQDVNSCQVWMPNFQIQFEYLQGSAAQYASSWQWGTTSFDLSTGCNNYDNQGHSQTDFPGFYWNIDCDNNCGGTKSS",glycan array binding signal (z-score),[1],-0.426
same,glycan array binding signal (z-score),[2],-0.511
same,glycan array binding signal (z-score),[3],-0.483
same,glycan array binding signal (z-score),Neu5Ac(a2-3)Gal(b1-4)Glc,-0.503
same,glycan array binding signal (z-score),[4],-0.499
same,glycan array binding signal (z-score),[5],-0.5
same,glycan array binding signal (z-score),[6],-0.497
same,glycan array binding signal (z-score),[7],-0.495
same,glycan array binding signal (z-score),[8],-0.476
same,glycan array binding signal (z-score),[9],2.89
same,glycan array binding signal (z-score),[10],-0.5
same,glycan array binding signal (z-score),[11],-0.398
same,glycan array binding signal (z-score),[12],-0.485
same,glycan array binding signal (z-score),[13],-0.507
same,glycan array binding signal (z-score),[14],-0.499
same,glycan array binding signal (z-score),[15],-0.359
same,glycan array binding signal (z-score),[16],-0.507
same,glycan array binding signal (z-score),[17],1.81
same,glycan array binding signal (z-score),[18],-0.492
same,glycan array binding signal (z-score),[19],1.87
same,glycan array binding signal (z-score),[20],1.82
same,glycan array binding signal (z-score),[21],-0.498
same,glycan array binding signal (z-score),[22],-0.501
same,glycan array binding signal (z-score),[23],-0.496
same,glycan array binding signal (z-score),Neu5Ac(a2-3)GalNAc,-0.497
same,glycan array binding signal (z-score),[24],-0.502
same,glycan array binding signal (z-score),[25],2.92
same,glycan array binding signal (z-score),[26],2.31
same,glycan array binding signal (z-score),[27],-0.496
same,glycan array binding signal (z-score),Neu5Ac(a2-6)Gal,-0.501
same,glycan array binding signal (z-score),Neu5Ac(a2-6)Gal(b1-4)Glc,-0.507
same,glycan array binding signal (z-score),[28],-0.498
same,glycan array binding signal (z-score),[29],-0.501
same,glycan array binding signal (z-score),[30],-0.494
same,glycan array binding signal (z-score),[31],-0.502
same,glycan array binding signal (z-score),[32],-0.496
